Measurements taken from PubChem BioAssay AID463173 (ICCB-Longwood Screening Facility, Harvard Medical School, 2010).
Out of some 52,000 compounds screened, about 4,300 (8.3%) were called active. Rule as the data show it: active = survival mostly below about 52% (no sharp cut-off); inactive = mostly above about 56%. This is one part of the list.

Test system: DeltatarO mutant
Test: growth inhibition of S. aureus wild type versus tarO mutant, primary screen, teichoic acid synthesis inhibitors, RN4220, OD600 (AID 463173)
Details: OD600, 18 h, active compounds read low, screened at 18.75 µg/mL (by protocol)

SMILES | survival
CCOc1ccc(N2CC(c3nc4ccccc4n3CCOc3ccc(OC)cc3)CC2=O)cc1 (stereo not drawn) | active: 47%
Cc1cc2nc(-c3ccc(NC(=O)c4ccc(OCC(C)C)cc4)cc3)oc2cc1C | inactive: 78%
O=C(Nc1ccc(F)c(Cl)c1)c1cc(S(=O)(=O)NCc2ccc3c(c2)OCO3)ccc1F | inactive: 122%
CNC(=O)C1CCCN(c2nnc(C)c3c(C)n(-c4ccccc4)nc23)C1 (stereo not drawn) | inactive: 84%
NC(=O)c1cc(N)ccc1N1CCCC1 | inactive: 84%
COc1ccc(-c2nc3sc(CCNC(=O)C(C)(C)C)c(C)n3n2)cc1 | inactive: 89%
O=C(O)CCc1ccc(-c2ccc(Br)cc2)n1-c1ccccc1O | inactive: 64%
CCOC(=O)C1CCN(c2cc3c(cc2NC(=O)c2ccccc2Cl)n(C)c(=O)n3C)CC1 | inactive: 76%
CC1CCC2(CC1)Nc1ccccc1S2 (stereo not drawn) | inactive: 105%
Cc1c(NC(=O)Nc2cccc(C(F)(F)F)c2)sc2nc3n(c(=O)c12)CCC(C)CC3 (stereo not drawn) | inactive: 94%
COc1ccc(/C=C/c2nc(C#N)c(N3CCC(C(N)=O)CC3)o2)cc1OC | inactive: 117%
Cc1ccc(-c2nc(CS(=O)(=O)CC(=O)NC(C)CCc3ccccc3)c(C)o2)cc1 (stereo not drawn) | inactive: 63%
CC(C)CN(c1ccccc1)S(=O)(=O)c1nnc(NC(=O)C2CCCCC2)s1 | inactive: 51%
O=C(NCCO)C(=O)NCC(c1ccc2c(c1)OCO2)N1CCOCC1 (stereo not drawn) | inactive: 75%
O=C(CCS(=O)(=O)c1ccccc1)N(Cc1cccnc1)c1nc2c(F)cccc2s1 | inactive: 83%
COc1ccc(C(CC(=O)Nc2ccccn2)N2Cc3ccccc3C2=O)cc1OC (stereo not drawn) | inactive: 102%
CCOC(=O)c1nnc2c(-c3ccc(Cl)cc3)c(C)nn2c1N | inactive: 78%
CCc1ccccc1NC(=O)Cn1nnc(C(=O)NCc2ccco2)c1N | inactive: 93%
CC(NC(=O)CCc1cn(Cc2ccccc2Cl)c2ccccc12)c1ccccc1 (stereo not drawn) | inactive: 58%
O=C(NCCc1ccccc1)c1ccc(CSc2nc3cccnc3n2Cc2ccccc2)cc1 | inactive: 94%

SMILES | survival
Cc1cc2c(cc1S(=O)(=O)CCC(=O)N1CCN(c3ccccc3)CC1)OCC(=O)N2 | inactive: 89%
CCCCCOC(=O)CSc1nc2sc3c(c2c(=O)n1Cc1ccccc1)CC(C)(CC)OC3 (stereo not drawn) | active: 46%
CCS(=O)(=O)N1CC(=O)N(c2cc(Cl)ccc2C)C(C)(C(=O)NC2CCCCCC2)C1 (stereo not drawn) | inactive: 99%
C=CCn1c(Br)nc2c1c(=O)n(C)c(=O)n2C | inactive: 73%
COc1ccc(-c2nc3scc(CCNS(=O)(=O)c4cccs4)n3n2)cc1 | active: 6%
COc1ccc(CNC(=O)CCc2c(C)nn(-c3ccc(N4CCCC4)nn3)c2C)cc1 | inactive: 80%
Cc1ccc(-n2c(=O)c3c4c(sc3n(CC(=O)C(C)(C)C)c2=O)CCCCC4)cc1C | inactive: 89%
COc1cc(Cl)c(NS(=O)(=O)c2cc3[nH]c(=O)c(=O)[nH]c3cc2C)c(OC)c1 | inactive: 120%
CCOC(=O)N1CCN(C(=S)Nc2ccc3nsnc3c2)CC1 | inactive: 97%
COc1ccc(Br)cc1CNCc1c(C(=O)O)c(C)n(Cc2ccccc2C)c1C | inactive: 65%
Cc1nc2cccnc2n1-c1cccc(C(=O)NCc2cccc(Cl)c2)c1 | inactive: 85%
CCC(=O)N1CCc2cc(Br)cc(S(=O)(=O)NCCc3ccc(C)cc3)c21 | inactive: 85%
CCCN(C(=O)c1cc2c(s1)-c1ccccc1OC2)c1ccc(C(C)C)cc1 | active: -3%
Cc1cccc(OC(=O)c2snnc2C)c1C | inactive: 82%
CCc1ccc(Nc2nc(-c3cc4cccc(OC)c4oc3=O)c(CC)s2)cc1 | inactive: 113%
CCOC(=O)c1ccc(NC(=O)Nc2cc3c(cc2N2CCCCC2)n(CC)c(=O)n3CC)cc1 | active: 57%
c1cc2c(cc1CNc1ccc(N3CCOCC3)cc1)OCO2 | inactive: 68%
CCOC(=O)Cc1ccc(NC(=O)Nc2nnc(N3CCCCC3C)s2)cc1 (stereo not drawn) | inactive: 76%
CN=C1SC(CC(=O)NC(N)=O)C(=O)N1C (stereo not drawn) | inactive: 90%
O=C(Nc1ccc2c(c1)CCCN2C(=O)c1cccs1)c1ccccc1C(F)(F)F | inactive: 89%

SMILES | survival
COC(=O)c1ccc(NC(=O)c2c(-c3ccccc3)c(-c3ccccc3)nn(C)c2=O)cc1 | inactive: 58%
O=S(=O)(Nc1ccc(OC(F)(F)F)cc1)c1ccc(N2CCCCS2(=O)=O)cc1 | inactive: 78%
CCc1cccc(C)c1Nc1c(-c2cccs2)nc2ncccn12 | inactive: 73%
OCCN(CCO)CC(O)Cn1c2ccc(Br)cc2c2cc(Br)ccc21 (stereo not drawn) | active: 2%
O=C(Cn1c(=O)c2ccccc2n(CC(=O)Nc2ccccc2F)c1=O)NCCc1ccccc1 | inactive: 80%
Cc1cc(C)c(NC(=O)CCN2CCCCC2)c(C)c1 | inactive: 86%
CC(C)c1ccc(S(=O)(=O)NCc2nc3cccnc3n2Cc2ccc(F)cc2)cc1 | inactive: 88%
Cn1cnnc1SCCOc1ccc(Cl)cc1 | inactive: 103%
COc1ccc(N2CCN(C(=O)CSc3nnc4c(C)cc5cc6c(cc5n34)OCCO6)CC2)cc1 | inactive: 86%
CC1=C(C(=O)Nc2cc(C)cc(C)c2)C2(CCCCC2)OC1=O | inactive: 90%
O=C(Nc1ccc(F)c(F)c1)c1ccc(=O)n(Cc2ccc(F)cc2)c1 | inactive: 112%
COc1ccc(NC(=O)COCc2cc(-c3ccco3)on2)cc1Cl | inactive: 112%
COc1ccc(-c2nnn(CC(=O)N(CC(=O)NC3CCCC3)c3ccccc3)n2)cc1OC | inactive: 93%
Cc1ccc(NC(=O)C2CCC(CNS(=O)(=O)c3cccs3)CC2)cc1C (stereo not drawn) | inactive: 94%
CCOC(=O)C1CCN(C(=O)c2ccc(C)c(NC(=O)c3nsc4ccccc34)c2)CC1 | inactive: 88%
CCC(=O)N1c2ccc(S(=O)(=O)CCC(=O)NCc3ccc(OC)cc3)cc2CC1C (stereo not drawn) | inactive: 117%
CCN1CCN(C(C)C(=O)Nc2ncc(C)s2)CC1 (stereo not drawn) | inactive: 72%
CCc1ccc2c(c1)c(=O)c(S(=O)(=O)c1ccc(F)cc1)cn2CC(=O)Nc1ccccc1OC | inactive: 84%
